Data taken from the supplement of paper PMC12632987.
The full ranking holds about 4,500 sequences; the median of “median log2 fold change of GCK-ALFA target abundance (FLAG IP / Myc IP barcode read proportion)” is about 0.078, and the lowest 2% start at about -0.6. The list shows a part of the results.

B1: GBRAP_160_4648 (protein)
chain: SESLEEILEVIDEYSEIAKEAVKEGNLENAIAAMRMMTGDVVLLADEDPRFSEEDVDELDELGDKAVAELEAAKDKSPEELIALIDKGTEELKKLVKEKY
B2: GBRAP_137_3623 (protein)
chain: KKVKITFYEEDGVAIAEITADTSVDKEKVLEIVEEVAEKHGVKLVVALTEPDEPAVFYLVGTPEQVIAAVKELIKRLKEELGIEVELSSEGAEELVEEVK
B3: GBRAP_52_6283 (protein)
chain: SMEEVEEIAERIVELIKEGKLEEALELAREAVEKLSLEEVIRLGELLVERIAELEPEQLDLALEVVEEIARGLEEKFGAEEEADIIEARAAAAAYKRLQA
B4: GBRAP_74_6543 (protein)
chain: MEEEVEKIIEILKNGNDEEKIEAIKKIKLDFSTENLKRLLLALAELAIEAAEAGNKELLEAATDKMVEIYDRIAGEPLDPETEKALVEALAAAVAAEKAA
B5: GBRAP_14_3871 (protein)
chain: KEEVLELINKAIDEMEKEMKKLLPEKAEEIEKVAEEVRKKAKELIEEEDDVEEIMEKIREYSLKLVEEAFKDLPPEDRAALLATADNEFAEVDLEIEEKL
B6: GBRAP_52_6351 (protein)
chain: MEEKARAIALEMVALKLAGDEEALRARAKEIAKTWSDEEIELLFKELARLAKTATPEEAEAILEVAEVLADELIAAGRDEYFASALLADVAKAVYENLQK
B7: GBRAP_195_5412 (protein)
chain: KKVVGRVLRVTAEDTPEQILAKIEAIVAEVKAASNGDLVLVVARDPSVPEETIRAAVARAQARYPDIKITVEIFDDPSLPEATLQRFAEMEVLNLEEELE
B8: GBRAP_52_6022 (protein)
chain: MEEELEEKVEELLELVKEGKEEEARKAAKELVESLNEEELELLIEVLARRAREARPEDHEAVWRLTEIIAEALEEAGVDEALADDLEARVAAALYEALQR
B9: GBRAP_128_3515 (protein)
chain: SMEEAVERVKELMERIGEADEEEARELTRELAELIASNDDETAEAMADKAIELLPKLSREKLEVVADTLREVRPSLSPLKANLVADIEVEALNLAEELEE
B10: GBRAP_52_6052 (protein)
chain: MEERLRALVERALELMRAGDEEGARALLREVAETLDEEELELFAELLAEAAAKAAPEEHDAMARLAELWEDALLEAGVDEAFADDALARIYAALYEAEQK
B11: GBRAP_52_5952 (protein)
chain: MAARIAALVDELWALVKAGRLEEARALARELVRTLDDAELEAFAAAVAARVAAAPPEELDAAFTLAEIVADEIEREGRDEALAGDLLAAAARALHAKELA
B12: GBRAP_184_5171 (protein)
chain: MLLEFEIEINNEEEAREKMEEIAEAVKGKKAELRVLVKMPKVTEEIVRVILEKLKEIKDAGWATDILVDFEGEISEEVRDVALEGAREAGVKVVLALPEE
B13: GBRAP_83_6944 (protein)
chain: KEHVTVAAPGDRIEEAVEIAFDLQKEEGLEVSLEFIFSSEEAEAVLAAVKAAIDRGFEGEITLYSTDRNKELLEKIVAEIKAHAKAAGVKVEVKGYVNEE
B14: GBRAP_78_6715 (protein)
chain: KLEEELDKAIETLNKASKLALKLPEERSNEILDLLVEAANLLEEVKEPGVKKEEALKLLKEAKELLEKALELLGEDDKELKKEVEKALKLVEKAIKELEK
B15: GBRAP_160_4866 (protein)
chain: SEKLEKALEIVEEARERAVAIVREAPASARAAFAEAEMGEAILELEEEGLITDEMEDKLMEIADRLRARLRANADASVEEHIALVEEAFEEMEKTIKEMS
B16: GBRAP_52_5983 (protein)
chain: AAAEARALARELVALVLAGREAEAEALLREAAATLSPEELAAIARELAALARTATPEEIDAIVRAAEMLEDIWLEAGFDEALADDGLARVAAAAYDALQA
B17: GBRAP_160_4177 (protein)
chain: SSKLEEAEKRIRELFAEALEMMKGETAAQRAAIADVTFGEIILELEELGLLTDEVEAEIDAIRDETVATILANPDLTDEELAALLEDSAERIIAALRAGS
B18: GBRAP_150_3922 (protein)
chain: DIETLLTIADTARDYAEGIADGELSLVPHAIKLLKDALEEAEELPEELKEKLKKLLEEAIKLAEKIAAGAPEEERKKLVKELLEKTKKALELVEEYKKKL
B19: GBRAP_160_4669 (protein)
chain: SEELEELMEEIEEIMDEALEMMEGESLEERIAVARVMTGEVILLLEESPLATDEVIDHADELGEELVEYIREHPDITPEELAELLEEKLEELEEKLEEDS
B20: GBRAP_52_5894 (protein)
chain: MLEEAIKLLKEAIEAVKAGDEEKARKILREIVRNFDEETIIEAVERLAKEILEKSLEEAKAFYETMELLAEIWEEEGGDEAIASYIEAVAGAALYEVEQK
B21: GBRAP_9_7186 (protein)
chain: MQEKKEKILEEVKEELELAIEVAPEEYKELIKEKTEEVLKELEKAVKDENTTLEELLKKLEELFEKLIEIAKKNVPKETYLQIEAILGTAILSAEEIIEE
B22: GBRAP_83_6980 (protein)
chain: KEKVVIAAVGDRLLDAVDIAEDLQKEEGKEVELEILATREDIPRVLEMAERLAERGLNLKIRVYLFGATEEEARELRERLEEIAKRHGVKWDIEVEAVEP
B23: GBRAP_128_3457 (protein)
chain: SVEEVRRWTRETMERIKEADLEEARRLFEELAERLVGLSLEEVEAAVEVIEEMLPELSAEKLDILADVFAEARPRFTPEKAALVAGVASDALLEAEEQEE
B24: GBRAP_150_3915 (protein)
chain: DLETLLTIADTAKDLLEAILDGEEELLPHALKLAEAALEEAKDISEEVKELAEKALKLLKEALKAKKAGAPKEEIQKLAKEALKALEELIKEVEKLIKEK
B25: GBRAP_52_6205 (protein)
chain: MHERMRAHARELVALVKAGDLDAARAYARELARTLNEEELELLGEELVELAKTAAPEDLDAIFKAAEILSDVLEEEGFDEALADGLLNRVAAALYERELK
B26: GBRAP_52_6056 (protein)
chain: MEARIEALARAIAAAIAAGDLDAALALLREAIATLTPEEIRRTLQLAARLVAGLGEEAHERFVELLDEAHELMIEAGISEEEADIIVGDAEAALARAVAA
B27: GBRAP_26_5489 (protein)
chain: FEEEILEELEKKVREILKDEDPTLRAAVIAEAIDLLIEAGEEIEKNAKDEEKIEKAKKEALKELEESLKKFGLSEEKRKKVVEALKEALEKLEKEVKKKA
B28: GBRAP_52_6360 (protein)
chain: ALEAALARLRAALEAMRAGRRDEARAILEEIVATHDEATILAAARALAEELADKDLADAEAFLETALLLADVMDAAGRDPVAADDIEATAARLYAAVAAK
B29: GBRAP_125_2999 (protein)
chain: SREEALAALARVARALGLSDEEVEELVRLAARHGLRQALIAIALAEGAEELAEALERLTEEEVAEVLARAAAALEADPGLTPEEILARLLELARAALAAR

What follows are binders tested against GABARAP, O95166 (assay: median log2 fold change of GCK-ALFA target abundance (FLAG IP / Myc IP barcode read proportion) (log2 ratio); each designed protein is fused to an ALFA-tag nanobody in HEK293 cells to bring the named protein to FLAG-tagged glucokinase (GCK); Myc marks an untargeted standard; higher = target protein stabilised (more abundant)). Details: target protein: 3xFLAG-MCP-GCK-ALFA reporter; HEK293 landing pad (RPLP).
Summary of the method: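 Sequencing of reverse-transcribed, amplified circular RNA barcodes from anti-FLAG and anti-Myc immunoprecipitates provided the readout for an ALFA-nanobody-fused binder library recombined into HEK293 landing-pad cells. Those cells were induced with 2 μg mL^−1 doxycycline, transfected with a plasmid expressing a FLAG-tagged target and a Myc-tagged standard, and lysed after 48 h. Target abundance is the per-binder median log2 ratio of FLAG to Myc barcode read proportions. Only barcodes at a proportion of ≥10^−7 in both replicates and binders with ≥3 barcodes per replicate were kept, with a 10^−6 pseudocount added before the two replicates were pooled.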

GABARAP, O95166, sequence (O95166 whole entry, the tested form may be a part): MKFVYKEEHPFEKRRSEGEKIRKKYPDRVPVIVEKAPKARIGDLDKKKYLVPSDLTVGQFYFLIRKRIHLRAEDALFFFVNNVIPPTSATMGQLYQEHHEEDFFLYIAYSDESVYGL

Compared with B1, B2 is lower in “median log2 fold change” value: -0.141 for the first, -0.628 for the second.

First: B3
Second: B4
The “median log2 fold change” value of the first is higher: 0.00472 for the first, -0.382 for the second.

B5 and B6 are within 0.2 log units of each other in “median log2 fold change” value: 0.0963 for the first, 0.161 for the second.

B7 and B8 are within 0.2 log units of each other in “median log2 fold change” value: 0.171 for the first, 0.0922 for the second.

B9 and B10 are within 0.2 log units of each other in “median log2 fold change” value: 0.0774 for the first, -0.0838 for the second.

B11 and B12 are within 0.2 log units of each other in “median log2 fold change” value: 0.0459 for the first, 0.0732 for the second.

B13 and B14 are within 0.2 log units of each other in “median log2 fold change” value: 0.127 for the first, 0.109 for the second.

Compared with B15, B16 is lower in “median log2 fold change” value: 0.143 for the first, -0.406 for the second.

Going from B17 to B18, the “median log2 fold change” value rises from -0.0732 to 0.133.

First: B19
Second: B20
The “median log2 fold change” value of the first is lower: -0.43 for the first, -0.149 for the second.

First: B21
Second: B22
The “median log2 fold change” value of the first is lower: -0.362 for the first, 0.0733 for the second.

B23 and B24 are within 0.2 log units of each other in “median log2 fold change” value: 0.196 for the first, 0.111 for the second.

First: B25
Second: B26
The “median log2 fold change” value of the first is higher: -0.122 for the first, -0.851 for the second.

First: B27
Second: B28
The “median log2 fold change” value of the first is higher: 0.227 for the first, -0.0679 for the second.

In the case of B29, the “median log2 fold change” value is reported as 0.148.
